Measured values taken from PubChem BioAssay AID588342 (National Center for Advancing Translational Sciences (NCATS), 2011).
Screen size: about 360,000 compounds; about 25,000 (6.9%) were called active. Inconclusive results, whose numbers are uncertain, are shown with a selection of clear calls. Calls follow the shape of the dose curve; as a rule, active = well fitted inhibition curve with a large enough effect; inconclusive = small, poorly fitted or top-dose-only effect; inactive = flat fitted curve, though single readings scatter. A potency beside an inconclusive call is a rough fit, not a confirmed value.

Each compound was assayed against Luciferin 4-monooxygenase (Photinus pyralis) (UniProt P08659) (assay: qHTS profiling assay for firefly luciferase inhibitor/activator using purifed enzyme and Km concentrations of substrates (counterscreen for miR-21 project)). Conditions: purified FLuc, luminescence inhibition; series mostly up to 57.5 µM.
Method in brief: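 Biochemical qHTS of compounds, final roughly 60 µM downward over six points, against 10 nM purified firefly luciferase using Km concentrations of substrates (10 uM D-luciferin, 10 uM ATP) in Tris acetate pH 7.5 buffer; luminescence output.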
Also: nearly all actives have a fitted effect of over 55% in size.
Potency is read from the fitted curve at half-maximal effect; tags tell the direction and shape of the fitted curve.

Sequence of UniProt P08659 (P08659 whole entry, looked up): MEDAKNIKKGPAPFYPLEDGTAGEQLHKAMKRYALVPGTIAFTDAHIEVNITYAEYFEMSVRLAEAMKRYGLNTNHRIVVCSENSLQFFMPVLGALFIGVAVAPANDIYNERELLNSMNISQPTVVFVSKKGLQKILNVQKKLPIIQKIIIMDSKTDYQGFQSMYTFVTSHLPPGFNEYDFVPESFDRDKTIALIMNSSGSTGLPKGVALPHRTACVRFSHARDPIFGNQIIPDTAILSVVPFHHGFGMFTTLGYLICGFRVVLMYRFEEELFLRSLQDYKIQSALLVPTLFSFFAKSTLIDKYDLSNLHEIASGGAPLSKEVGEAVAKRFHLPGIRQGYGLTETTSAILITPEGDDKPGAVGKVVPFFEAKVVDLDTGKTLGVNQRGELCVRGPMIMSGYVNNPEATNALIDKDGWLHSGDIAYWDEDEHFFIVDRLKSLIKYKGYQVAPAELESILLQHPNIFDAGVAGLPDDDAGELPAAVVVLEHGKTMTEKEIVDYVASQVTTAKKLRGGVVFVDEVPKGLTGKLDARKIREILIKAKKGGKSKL

Row | Structure (SMILES) | Potency
1 | CCOC(=O)Cc1csc(NC(=O)CSc2nc(-c3ccccc3)c(C#N)c(=O)[nH]2)n1 | inconclusive: 13.5 µM [inhibitor, partial curve, poor fit]
2 | O=S(=O)(c1ccc2c(c1)OCCO2)N(Cc1ccc(F)cc1)Cc1nnc(-c2cccs2)o1 | inactive
3 | Cc1oc(-c2ccoc2)nc1CN(CC1CCC(=O)N1)C(C)C (stereo unspecified) | inactive
4 | O=C(Oc1ccc2cc(Br)ccc2c1)c1cccnc1 | inconclusive: 3.79 µM [inhibitor, full curve]
5 | Cc1ccc2c(CC(=O)Nc3ccc(N4CCN(C)CC4)cc3C)coc2c1 | active: 8.49 µM
6 | CCOC(=O)c1ccccc1NC(=O)C1CCN(c2ncnc3sc(C)c(C)c23)CC1 | inactive
7 | COc1cc(NC(=O)CC2C(=O)N(c3cccc(C)c3)C(=O)N2Cc2ccc(F)cc2)cc(OC)c1 (stereo unspecified) | inactive
8 | COc1cccc2sc(NC(=O)c3ccc(Br)s3)nc12 | active: 2.39 µM
9 | CC(C)C(=O)Nc1nc2cc3c(cc2s1)OCO3 | active: 13.5 µM
10 | O=c1[nH]c(-c2ccncc2)nc2ccccc12 | inconclusive: 30.1 µM [inhibitor, partial curve, poor fit]
11 | O=c1[nH]nc(N/N=C/c2ccccc2OC(F)F)c(=O)[nH]1 | inconclusive: 23.9 µM [inhibitor, single point]
12 | O=c1[nH]c2cc3c(cc2cc1CN(Cc1cccs1)Cc1nnnn1Cc1ccco1)OCCO3 | inconclusive: 30.1 µM [inhibitor, partial curve, poor fit]
13 | Cc1[nH]c2ccc3ccccc3c2c(=O)c1C/C=C/Cl | inconclusive: 3.01 µM [inhibitor, partial curve, poor fit]
14 | COc1ccc(NC(=O)C(NS(=O)(=O)c2cccs2)C(C)C)cc1Cl (stereo unspecified) | inactive
15 | COc1cccc(Cn2c(=O)n(Cc3ccco3)c(=O)c3oc4ccccc4c32)c1 | inactive
16 | O=C(N/N=C/c1ccc([N+](=O)[O-])cc1)c1ccc2nc[nH]c2c1 | inconclusive: 12 µM [inhibitor, partial curve, poor fit]
17 | COc1ccc(OCC(=O)N2CCCC(CO)(CCOc3ccccc3)C2)cc1 (stereo unspecified) | inactive
18 | COC(=O)C1=NN(C(=O)c2ccccc2)C(O)(c2ccc([N+](=O)[O-])cc2)C1 (stereo unspecified) | active: 23.9 µM
19 | O=C1C2C(C(=O)N1/N=C/c1cc([N+](=O)[O-])c(O)cc1O)C1C=CC2C12CC2 (stereo unspecified) | inconclusive: 30.1 µM [inhibitor, partial curve, poor fit]
20 | O=C(NCc1nc2ccccc2[nH]1)C1=C[C@H](c2coc3ccccc3c2=O)C[C@H](OCc2ccc(CO)cc2)O1 | inconclusive: 23.9 µM [inhibitor, partial curve, poor fit]
21 | Cc1cccc(NC(=O)c2cc(-c3cc(C)cc(C)c3O)n[nH]2)c1 | inconclusive: 13.5 µM [inhibitor, partial curve]
22 | Fc1ccc(CN2CCCN(Cc3nc(-c4ccc5c(c4)OCO5)no3)CC2)cc1 | inconclusive: 26.9 µM [inhibitor, partial curve, poor fit]
23 | CCc1nnc(NC(=O)c2ccc(C)o2)s1 | inconclusive: 21.3 µM [inhibitor, partial curve, poor fit]

Row | Structure (SMILES) | Potency
24 | NNc1nc2sc3c(c2c(=O)n1Cc1ccccc1)CCC3 | active: 6.75 µM
25 | Cc1ccc(Nc2nn3c(=O)c4cc5c(cc4nc3s2)OCO5)cc1Cl | inactive
26 | N#Cc1ccc(CN2CCN(C(=O)CN3C(=O)NC4(CCCC4)C3=O)CC2)cc1 | inactive
27 | COc1ccc(NC(=O)CSc2ncccc2C(=O)OC(C)C)cc1OC | inconclusive: 23.9 µM [inhibitor, single point]
28 | CCc1ccc(NC(=O)C(CC)n2c(=O)c(C(F)(F)F)nc3ccccc32)cc1 (stereo unspecified) | inactive
29 | CC(C)OC(=O)c1ccc(COC(=O)c2cccc(-c3nnc(-c4ccccc4)o3)c2)cc1 | inconclusive: 15.1 µM [inhibitor, partial curve]
30 | O=C(OCC(=O)c1ccc[nH]1)c1ccccc1 | active: 16.9 µM
31 | CCOC(=O)/C(=N\Nc1ccccc1[N+](=O)[O-])c1csc(Nc2ccccc2)n1 | inconclusive: 9.53 µM [inhibitor, partial curve]
32 | COc1ccc(-c2noc(-c3ccoc3C)n2)cc1 | active: 2.39 µM
33 | CCOC(=O)Cn1c(=O)c2c(nc3n2CCN3c2ccc(CC)cc2)n(C)c1=O | active: 13.5 µM
34 | COc1cc(Cl)c(C)cc1Nc1ncnc2c1nc1n2CCCC1 | inactive
35 | CCOC(=O)CCNC(=O)CCNC(=O)C(c1ccccc1)c1ccccc1 | inactive
36 | Cc1ccccc1-c1nc(-c2ccc(NC(=O)c3ccc4c(c3)OCO4)cc2)no1 | inconclusive: 15.1 µM [inhibitor, partial curve]
37 | CC(C)(Oc1ccc(-c2ccco2)cc1)C(=O)O | inconclusive: 26.9 µM [inhibitor, partial curve, poor fit]
38 | Nc1nc(COC(=O)C2CC(=O)N(Cc3ccccc3Cl)C2)nc(Nc2ccccc2)n1 (stereo unspecified) | inactive
39 | CCOc1ccc(S(=O)(=O)N2CCC(C(=O)Nc3cc(S(C)(=O)=O)ccc3Cl)CC2)cc1 | inactive
40 | N#C/C(=C\c1cccs1)C(=O)NCC1CCCO1 (stereo unspecified) | inconclusive: 23.9 µM [inhibitor, single point]
41 | CC(C)c1ccc(NC(=O)Cn2c(=O)n(CCc3ccccc3)c(=O)c3ccccc32)cc1 | inactive
42 | Cn1c(=O)c(C(=O)Nc2ncccc2O)c(O)c2ccccc21 | inconclusive: 16.9 µM [inhibitor, partial curve]
43 | O=C(COc1ccc(Cl)cc1Br)NC(=O)NC1CCCC1 | active: 6.01 µM
44 | Cc1ccc(C(=O)Nc2cccc(-c3nc4ccccc4o3)c2)c(Cl)c1 | inconclusive: 9.53 µM [inhibitor, partial curve, poor fit]
45 | COc1ccc(N2CC(C(=O)N3CCC(c4nc5ccccc5[nH]4)CC3)CC2=O)cc1 (stereo unspecified) | inactive
46 | Cc1ccc(-c2nc3ccccc3o2)cc1NC(=S)NC(=O)/C=C/c1ccco1 | inconclusive: 19 µM [inhibitor, partial curve]
